Values belong to the binder of their own block, whether it stands above or below them.
Assays:
[1] = molecular target: T1, recombinant human FAP coated on cell culture plates (human, UniProt Q12884 26-760, limits assumed); assay: cell-based or functional assay
[2] = molecular target: T2, IL-10R on freshly isolated human blood monocytes (human, UniProt Q13651 22-578; Q08334 20-325); assay: cell-based or functional assay
T2 sequence (looked up) 1: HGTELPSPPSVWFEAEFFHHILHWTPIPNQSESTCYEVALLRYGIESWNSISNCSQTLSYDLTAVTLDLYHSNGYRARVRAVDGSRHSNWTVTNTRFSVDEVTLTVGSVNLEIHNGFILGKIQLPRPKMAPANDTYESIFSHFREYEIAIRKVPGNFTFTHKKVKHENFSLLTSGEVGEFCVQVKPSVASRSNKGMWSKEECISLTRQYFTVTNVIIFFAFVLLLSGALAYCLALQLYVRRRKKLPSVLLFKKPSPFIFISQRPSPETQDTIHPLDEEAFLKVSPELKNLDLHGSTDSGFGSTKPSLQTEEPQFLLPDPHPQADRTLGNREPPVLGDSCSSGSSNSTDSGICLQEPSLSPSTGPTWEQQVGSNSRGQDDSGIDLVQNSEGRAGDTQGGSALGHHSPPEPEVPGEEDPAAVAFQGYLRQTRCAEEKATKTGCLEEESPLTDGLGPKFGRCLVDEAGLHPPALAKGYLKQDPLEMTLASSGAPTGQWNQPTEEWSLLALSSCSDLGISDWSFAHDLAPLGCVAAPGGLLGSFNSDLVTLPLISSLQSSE
T2 sequence (looked up) 2: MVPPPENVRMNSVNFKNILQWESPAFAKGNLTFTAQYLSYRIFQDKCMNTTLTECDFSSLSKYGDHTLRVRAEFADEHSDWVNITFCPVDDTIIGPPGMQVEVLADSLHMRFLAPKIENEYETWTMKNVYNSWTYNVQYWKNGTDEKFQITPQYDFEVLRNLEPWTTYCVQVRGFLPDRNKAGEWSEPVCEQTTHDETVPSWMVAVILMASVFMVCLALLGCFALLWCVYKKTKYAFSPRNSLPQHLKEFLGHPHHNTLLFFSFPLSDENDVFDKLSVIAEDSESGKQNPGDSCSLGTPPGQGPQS

[3] = molecular target: T1, recombinant human FAP coated on cell …; assay: cell-based or functional assay; remark: listed apart in the source
[4] = molecular target: T1, recombinant human FAP coated on cell …; assay: cell-based or functional assay; remark: listed apart in the source
His-tagged human FAP ECD = molecular target: T3, His-tagged human FAP ECD (human, UniProt Q12884 27-760); assay: SPR ProteOn XPR36, 25 C; His-tagged FAP captured by anti-penta-His IgG, construct as analyte
T3 construct: also called hu FAP

His-tagged mouse FAP ECD = molecular target: T4, His-tagged mouse FAP ECD (mouse, UniProt P97321 27-761); assay: as above
T4 construct: also called mu FAP; murine FAP

[5] = molecular target: T5, His-tagged cynomolgus FAP ECD (cynomolgus, UniProt Q12884 27-760 (human entry)); assay: as above
T5 construct: also called cyno FAP

EC50, suppression of hIL-6 production by monocytes, set-up (b) (immobilized) [1]: 0.011 nM
EC50 [nM] pSTAT3 induction, primary monocytes [2]: 0.13 nM
EC50, down-regulation of IFNγ-induced MHC-II expression on primary monocytes, set-up (b) (immobilized) [3]: 0.018 nM
EC50 [nM] IL-6, suppression of IL-6 production by monocytes, Set-up (b), donor 7 [4]: 0.002 nM
Kd (His-tagged human FAP ECD): 0.0106 nM
koff (His-tagged human FAP ECD): 4.03e-05 s⁻¹
kon (His-tagged human FAP ECD): 3.81e+06 M⁻¹ s⁻¹
Kd (His-tagged mouse FAP ECD): 0.0583 nM
koff (His-tagged mouse FAP ECD): 0.000124 s⁻¹
kon (His-tagged mouse FAP ECD): 2.12e+06 M⁻¹ s⁻¹
Kd [5]: 0.00522 nM
koff [5]: 2.86e-05 s⁻¹
kon [5]: 5.47e+06 M⁻¹ s⁻¹
B1: 4B9 IgG-IL-10 (other)
heavy: EVQLLESGGGLVQPGGSLRLSCAASGFTFSSYAMSWVRQAPGKGLEWVSAIIGSGASTYYADSVKGRFTISRDNSKNTLYLQMNSLRAEDTAVYYCAKGWFGGFNYWGQGTLVTVSSASTKGPSVFPLAPSSKSTSGGTAALGCLVKDYFPEPVTVSWNSGALTSGVHTFPAVLQSSGLYSLSSVVTVPSSSLGTQTYICNVNHKPSNTKVDKKV[human IgG1 Fc with changes omitted here]GGGGSGGGGSGGGGSGGGGSSPGQGTQSENSCTHFPGNLPNMLRDLRDAFSRVKTFFQMKDQLDNLLLKESLLEDFKGYLGCQALSEMIQFYLEEVMPQAENQDPDIKAHVNSLGENLKTLRLRLRRCHRFLPCENKSKAVEQVKNAFNKLQEKGIYKAMSEFDIFINYIEAYMTMKIRN
light: EIVLTQSPGTLSLSPGERATLSCRASQSVTSSYLAWYQQKPGQAPRLLINVGSRRATGIPDRFSGSGSGTDFTLTISRLEPEDFAVYYCQQGIMLPPTFGQGTKVEIKRTVAAPSVFIFPPSDEQLKSGTASVVCLLNNFYPREAKVQWKVDNALQSGNSQESVTEQDSKDSTYSLSSTLTLSKADYEKHKVYACEVTHQGLSSPVTKSFNRGEC
notes: also called IgG-IL-10 (clone 4B9)

EC50 [nM] pSTAT3 induction, primary monocytes [2]: 0.435 nM
Kd (His-tagged human FAP ECD): 0.0168 nM
koff (His-tagged human FAP ECD): 9.73e-05 s⁻¹
kon (His-tagged human FAP ECD): 5.8e+06 M⁻¹ s⁻¹
Kd (His-tagged mouse FAP ECD): 0.0369 nM
koff (His-tagged mouse FAP ECD): 0.000109 s⁻¹
kon (His-tagged mouse FAP ECD): 2.97e+06 M⁻¹ s⁻¹
Kd [5]: 0.0121 nM
koff [5]: 7.77e-05 s⁻¹
kon [5]: 6.4e+06 M⁻¹ s⁻¹
B2: 4B9 IgG-(IL-10M1)2 (other)
heavy: EVQLLESGGGLVQPGGSLRLSCAASGFTFSSYAMSWVRQAPGKGLEWVSAIIGSGASTYYADSVKGRFTISRDNSKNTLYLQMNSLRAEDTAVYYCAKGWFGGFNYWGQGTLVTVSSASTKGPSVFPLAPSSKSTSGGTAALGCLVKDYFPEPVTVSWNSGALTSGVHTFPAVLQSSGLYSLSSVVTVPSSSLGTQTYICNVNHKPSNTKVDKKV[human IgG1 Fc with changes omitted here]GGGGSGGGGSGGGGSSPGQGTQSENSCTHFPGNLPNMLRDLRDAFSRVKTFFQMKDQLDNLLLKESLLEDFKGYLGCQALSEMIQFYLEEVMPQAENQDPDIKAHVNSLGENLKTLRLRLRRCHRFLPCENGGGSGGKSKAVEQVKNAFNKLQEKGIYKAMSEFDIFINYIEAYMTMKIRN
light: B1 light
notes: also called IgG-(IL-10M1)2 (clone 4B9)

Source: patent publication US20140044674A1 (Hoffmann-La Roche, published 2014)
